Where a chain is given by its changes, count along the chain named. The list shows a part of the results.

31 molecules from publication PMC9911399, “Two distinct binding modes provide the RNA-binding protein RbFox with extraordinary sequence specificity” can be followed below.

The chains are these.
B1: AAAACCA (DNA:RNA)
RNA: GGGAGACCGGAAUUCAGAUUGUCCAAAACCAUUAAAUCCCGUCGUAGCCACCA
DNA 1: CAATCTGAATTCCGGTCTCCC
DNA 2: TGGTGGCTACGACGGGATT
B2: AGGGCCG (DNA:RNA)
RNA: B1 RNA with A26G, A27G, A28G, A31G
DNA 1: CAATCTGAATTCCGGTCTCCC
DNA 2: TGGTGGCTACGACGGGATT
B3: ACUAGGA (DNA:RNA)
RNA: B1 RNA with A26C, A27U, C29G, C30G
DNA 1: CAATCTGAATTCCGGTCTCCC
DNA 2: TGGTGGCTACGACGGGATT
B4: CCGCUGA (DNA:RNA)
RNA: B1 RNA with A25C, A26C, A27G, A28C, C29U, C30G
DNA 1: CAATCTGAATTCCGGTCTCCC
DNA 2: TGGTGGCTACGACGGGATT
B5: AAUAUGU (DNA:RNA)
RNA: B1 RNA with A27U, C29U, C30G, A31U
DNA 1: CAATCTGAATTCCGGTCTCCC
DNA 2: TGGTGGCTACGACGGGATT
B6: UGUUAGU (DNA:RNA)
RNA: GGGAGACCGGAAUUCAGAUUGUCCUGUUAGUUUAAAUCCCGUCGUAGCCACCA
DNA 1: CAATCTGAATTCCGGTCTCCC
DNA 2: TGGTGGCTACGACGGGATT
B7: UCCACAU (DNA:RNA)
RNA: B1 RNA with A25U, A26C, A27C, C30A, A31U
DNA 1: CAATCTGAATTCCGGTCTCCC
DNA 2: TGGTGGCTACGACGGGATT
B8: GAUAUCA (DNA:RNA)
RNA: B1 RNA with A25G, A27U, C29U
DNA 1: CAATCTGAATTCCGGTCTCCC
DNA 2: TGGTGGCTACGACGGGATT
B9: AAGUGGA (DNA:RNA)
RNA: B1 RNA with A27G, A28U, C29G, C30G
DNA 1: CAATCTGAATTCCGGTCTCCC
DNA 2: TGGTGGCTACGACGGGATT
B10: AGUAAUC (DNA:RNA)
RNA: B6 RNA with U25A, U28A, G30U, U31C
DNA 1: CAATCTGAATTCCGGTCTCCC
DNA 2: TGGTGGCTACGACGGGATT
B11: CCUUCCC (DNA:RNA)
RNA: B1 RNA with A25C, A26C, A27U, A28U, A31C
DNA 1: CAATCTGAATTCCGGTCTCCC
DNA 2: TGGTGGCTACGACGGGATT
B12: CGAGUGC (DNA:RNA)
RNA: B6 RNA with U25C, U27A, U28G, A29U, U31C
DNA 1: CAATCTGAATTCCGGTCTCCC
DNA 2: TGGTGGCTACGACGGGATT
B13: CGUGUUG (DNA:RNA)
RNA: B6 RNA with U25C, U28G, A29U, G30U, U31G
DNA 1: CAATCTGAATTCCGGTCTCCC
DNA 2: TGGTGGCTACGACGGGATT
B14: CGAAACU (DNA:RNA)
RNA: B1 RNA with A25C, A26G, C29A, A31U
DNA 1: CAATCTGAATTCCGGTCTCCC
DNA 2: TGGTGGCTACGACGGGATT
B15: AUAUGGG (DNA:RNA)
RNA: B1 RNA with A26U, A28U, C29G, C30G, A31G
DNA 1: CAATCTGAATTCCGGTCTCCC
DNA 2: TGGTGGCTACGACGGGATT
B16: AACUUCC (DNA:RNA)
RNA: B1 RNA with A27C, A28U, C29U, A31C
DNA 1: CAATCTGAATTCCGGTCTCCC
DNA 2: TGGTGGCTACGACGGGATT
B17: GUACCAU (DNA:RNA)
RNA: B1 RNA with A25G, A26U, A28C, C30A, A31U
DNA 1: CAATCTGAATTCCGGTCTCCC
DNA 2: TGGTGGCTACGACGGGATT
B18: UUGCUCU (DNA:RNA)
RNA: B6 RNA with G26U, U27G, U28C, A29U, G30C
DNA 1: CAATCTGAATTCCGGTCTCCC
DNA 2: TGGTGGCTACGACGGGATT
B19: AAUAACU (DNA:RNA)
RNA: B1 RNA with A27U, C29A, A31U
DNA 1: CAATCTGAATTCCGGTCTCCC
DNA 2: TGGTGGCTACGACGGGATT
B20: GGCGUAG (DNA:RNA)
RNA: B6 RNA with U25G, U27C, U28G, A29U, G30A, U31G
DNA 1: CAATCTGAATTCCGGTCTCCC
DNA 2: TGGTGGCTACGACGGGATT
B21: CGCACGC (DNA:RNA)
RNA: B1 RNA with A25C, A26G, A27C, C30G, A31C
DNA 1: CAATCTGAATTCCGGTCTCCC
DNA 2: TGGTGGCTACGACGGGATT
B22: CGUGCAC (DNA:RNA)
RNA: B6 RNA with U25C, U28G, A29C, G30A, U31C
DNA 1: CAATCTGAATTCCGGTCTCCC
DNA 2: TGGTGGCTACGACGGGATT
B23: UGAAAUC (DNA:RNA)
RNA: B6 RNA with U27A, U28A, G30U, U31C
DNA 1: CAATCTGAATTCCGGTCTCCC
DNA 2: TGGTGGCTACGACGGGATT
B24: AAUCUGC (DNA:RNA)
RNA: B1 RNA with A27U, A28C, C29U, C30G, A31C
DNA 1: CAATCTGAATTCCGGTCTCCC
DNA 2: TGGTGGCTACGACGGGATT
B25: ACUCGUA (DNA:RNA)
RNA: B1 RNA with A26C, A27U, A28C, C29G, C30U
DNA 1: CAATCTGAATTCCGGTCTCCC
DNA 2: TGGTGGCTACGACGGGATT
B26: GUGACUU (DNA:RNA)
RNA: B1 RNA with A25G, A26U, A27G, C30U, A31U
DNA 1: CAATCTGAATTCCGGTCTCCC
DNA 2: TGGTGGCTACGACGGGATT
B27: AUACCGU (DNA:RNA)
RNA: B1 RNA with A26U, A28C, C30G, A31U
DNA 1: CAATCTGAATTCCGGTCTCCC
DNA 2: TGGTGGCTACGACGGGATT
B28: CUGCCGA (DNA:RNA)
RNA: B1 RNA with A25C, A26U, A27G, A28C, C30G
DNA 1: CAATCTGAATTCCGGTCTCCC
DNA 2: TGGTGGCTACGACGGGATT
B29: AGUCACA (DNA:RNA)
RNA: B1 RNA with A26G, A27U, A28C, C29A
DNA 1: CAATCTGAATTCCGGTCTCCC
DNA 2: TGGTGGCTACGACGGGATT
B30: GUUGAAA (DNA:RNA)
RNA: B6 RNA with U25G, G26U, U28G, G30A, U31A
DNA 1: CAATCTGAATTCCGGTCTCCC
DNA 2: TGGTGGCTACGACGGGATT
B31: AACUCUC (DNA:RNA)
RNA: B1 RNA with A27C, A28U, C30U, A31C
DNA 1: CAATCTGAATTCCGGTCTCCC
DNA 2: TGGTGGCTACGACGGGATT

This test deals with T1, RBFOX1 RRM (Homo sapiens, UniProt Q9NWB1 109-208).
T1 sequence: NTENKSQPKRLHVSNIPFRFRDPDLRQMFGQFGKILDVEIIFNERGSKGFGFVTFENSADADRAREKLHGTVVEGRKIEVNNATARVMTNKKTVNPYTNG
The test is described as follows: EMSA; HiTS-Eq, 1 nM pool, 10 min; buffer printed only for the single-RNA assays: 10 mM Tris pH 7.5, 150 mM NaCl, 3.4 mM EDTA, 0.001% NP-40, 30 C. As to conditions: tags: His6 N-terminal (pET28a); label: 5' 32P. The gist of the method: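 Relative association constants, normalised to the cognate motif, were derived by comparing read counts of each RNA species with those of the control reaction. The RNA sequenced was the free fraction, separated by 8% native PAGE after a 10 min equilibration in 50 µL of 1 nM 5′-radiolabelled RNA (7 randomized nucleotides) with increasing concentrations of purified wild-type or mutant RbFox RRM.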
For B1, the binding signal was 0.00178 KA relative to UGCAUGU.
Regarding B2, the binding signal was 0.0216 KA relative to UGCAUGU.
With B3, the binding signal was 0.00458 KA relative to UGCAUGU.
As to B4, the binding signal is 0.0126 KA relative to UGCAUGU.
As to B5, the binding signal is 0.00943 KA relative to UGCAUGU.
B6: the binding signal is 0.0185 KA relative to UGCAUGU.
As for B7, the figure is 0.00266 KA relative to UGCAUGU; as for B8, 0.00907 KA relative to UGCAUGU.
Take B9: the binding signal was 0.00304 KA relative to UGCAUGU.
Consider B10, for which the binding signal is 0.00677 KA relative to UGCAUGU.
As for B11, the figure is 0.00395 KA relative to UGCAUGU; as for B12, 0.0179 KA relative to UGCAUGU; as for B13, 0.0111 KA relative to UGCAUGU.
Consider B14, for which the binding signal is 0.00281 KA relative to UGCAUGU.
With B15, the binding signal was 0.00401 KA relative to UGCAUGU.
As for B16, the binding signal is 0.00414 KA relative to UGCAUGU.
With B17, the binding signal is 0.00178 KA relative to UGCAUGU.
Turning to B18, the binding signal is 0.0225 KA relative to UGCAUGU.
On to B19, for which the binding signal is 0.000238 KA relative to UGCAUGU.
Take B20: the binding signal is 0.0147 KA relative to UGCAUGU.
Regarding B21, the binding signal is 0.0306 KA relative to UGCAUGU.
As to B22, the binding signal was 0.022 KA relative to UGCAUGU.
Turning to B23, the binding signal was 0.00702 KA relative to UGCAUGU.
Regarding B24, the binding signal is 0.0105 KA relative to UGCAUGU.
B25: the binding signal was 0.00301 KA relative to UGCAUGU.
For B26 the value was 0.0115 KA relative to UGCAUGU; for B27, 0.00101 KA relative to UGCAUGU.
Regarding B28, the binding signal is 0.0174 KA relative to UGCAUGU.
For the molecule B29, the binding signal was 0.00276 KA relative to UGCAUGU.
For the molecule B30, the binding signal is 0.0149 KA relative to UGCAUGU.
For the molecule B31, the binding signal is 0.00388 KA relative to UGCAUGU.
